Data published in PubChem BioAssay AID651820 (National Center for Advancing Translational Sciences (NCATS), 2012).
Screen size: about 340,000 compounds; about 12,000 (3.5%) were called active. The inconclusive results got no clear call from the source; some entries with a clear call stand among them for comparison. Calls come from the whole dose curve; as a rule, active = well fitted inhibition curve with a large enough effect; inconclusive = small, poorly fitted or top-dose-only effect, or another doubt; inactive = no such curve, though single readings can be large or run the other way. Potencies of inconclusive entries are left out as doubtful fits.

Test: qHTS Assay for Inhibitors of Hepatitis C Virus (HCV)
Conditions: Huh7.5.1 HCVcc-Cre (HCVcc is cell-culture hepatitis C virus) infection, luciferase reporter, 44 h; activity change, negative = inhibition: at 41.8 µM (top of the series) unless noted
Summary of the method: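 Luciferase read-out (15 sec integration) after a 15 min room-temperature substrate step quantifies HCVcc-Cre infection. Cells, 1,000 per well, had compound added 4 h post-plating, then virus at ~0.5 moi, and were cultured 44 h.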
% is set by controls: 0 for no effect and ±100 for the full control effect; potency is the fitted concentration of half-maximal effect; tags give direction and shape of the fitted curve.

SMILES | Potency | activity change, negative = inhibition
CCNc1nc(Oc2ccc(C(=O)OCC)cc2)nc(SC)n1 | inconclusive [inhibitor, partial curve] | 
CC(C)CC(COCc1ccc(F)cc1)N1CCN(C(=O)c2cccc(C(F)(F)F)c2)CCC1=O (configuration not stated) |  | inactive: -7.9%
O=C(NCCC(=O)N(CCc1ccccc1)Cc1ccccc1)c1ccc(Br)cc1 |  | inactive: 5.42%
O=C(NCCCn1ccnc1)c1cc(S(=O)(=O)N2CCOCC2)ccc1F |  | inactive: 8.32%
CCOc1ccc(C(=O)C2CCN(CC(=O)Nc3ccccc3N3CCOCC3)CC2)cc1 | inconclusive [inhibitor, single point] | 
O=C(/C=C/Nc1cccc(C(F)(F)F)c1)c1ccc(Oc2ncccn2)cc1 | inconclusive [inhibitor, single point] | 
CCOC(=O)C1CCCN(C(=O)C2CCN(S(=O)(=O)c3ccc4ccccc4c3)CC2)C1 (configuration not stated) | inconclusive [inhibitor, partial curve] | 
CCn1ncc(CN2CCN(Cc3cccc(OC)c3)C(CCO)C2)c1C (configuration not stated) |  | inactive: -0.162%
Cc1nc2ccccc2n1CCOc1ccc(F)cc1 | inconclusive [inhibitor, single point] | 
O=[n+]1cc(-c2ccccc2)n([O-])c2c1CCCCC2 |  | inactive: -2.78%
COc1ccc(CS(=O)/C(Cl)=C(/Cl)C(=O)Nc2ccc(OC)nc2)cc1 (configuration not stated) | active: 4.47 µM | 
O=C(Nc1nc(-c2ccccn2)cs1)c1ccco1 | inconclusive [inhibitor, single point] | 
COc1ccccc1C(=O)Nc1ccc(-c2nnn(CC(=O)N3CCN(C(=O)c4ccco4)CC3)n2)cc1 | inconclusive [inhibitor, partial curve] | 
COc1ccc(NC(=S)NC(=O)c2ccc(Br)o2)cc1 |  | inactive: -17.2%
COC(=O)c1ccc(Nc2nc(N3CCOCC3)nc(N3CCOCC3)n2)cc1 | inconclusive [inhibitor, partial curve] | 
O=C(O)CC1Cc2ccccc2C1C(=O)O (configuration not stated) |  | inactive: 32.4%
Cc1cc(C(=O)CSc2nc3ccccc3o2)c(C)n1C1CC1 | inconclusive [inhibitor, partial curve] | 
CCN(CC1CCCN(CCc2cccc(F)c2)C1)C(=O)c1cc(C)oc1C (configuration not stated) | inconclusive [inhibitor, single point] | 
CCOc1cccc(C(=O)Nc2cccc(C(C)=O)c2)c1 |  | inactive: -29.7%
CCOC(=O)c1sc(=S)n(-c2ccccc2Cl)c1SC |  | inactive: -18%
CC(C)COc1cccc(C(=O)Nc2ccc(S(=O)(=O)N3CCOCC3)cc2)c1 | inconclusive [inhibitor, full curve, poor fit] | 
COc1ccc(CN(C)CC(=O)N(C)CC(=O)Nc2ccccc2Br)cc1F |  | inactive: 6.53%
CCCn1c(SCC(=O)Nc2cc(S(=O)(=O)N3CCCCC3)ccc2C)n[nH]c1=O | inconclusive [inhibitor, single point] | 
c1cc(-c2noc(CCC3CCCC3)n2)ccn1 | inconclusive [inhibitor, single point] | 

SMILES | Potency | activity change, negative = inhibition
O=C(NCCCO)c1ccc(CSc2nc3ccccc3[nH]2)cc1 |  | inactive: -6.47%
Cc1nc2cc(Nc3nnc(-c4ccccc4)c4ccccc34)ccc2n1C | inconclusive [inhibitor, partial curve] | 
Nc1nnnn1CC(=O)N/N=C/c1ccc(-c2cccc(Cl)c2)o1 | inconclusive [inhibitor, single point] | 
Cc1ccc(NNC(N)=S)cc1Cl |  | inactive: 28.3%
COc1ccc(C2(CNC(=O)c3cccs3)CCOCC2)cc1 |  | inactive: 10.4%
CCc1ccc(NC(=O)C2CCN(S(=O)(=O)c3ccc4c(c3)NC(=O)CO4)CC2)cc1 |  | inactive: -6.76%
CCOc1ccccc1NC(=O)CSc1nnnn1Cc1ccccc1 | inconclusive [inhibitor, partial curve, poor fit] | 
O=C(O)c1ccccc1C(=O)Nc1ccc(-n2ccc(C(F)(F)F)n2)cc1 |  | inactive: -1.19%
CN1CCN(NC(=O)/C=C/c2ccc(C(C)(C)C)cc2)CC1 | inconclusive [inhibitor, partial curve] | 
CC(OC(=O)c1ccc([N+](=O)[O-])s1)C(=O)NC1CCCCC1C (configuration not stated) | inconclusive [inhibitor, single point] | 
CCOC(=O)c1[nH]c2ccc(OC)cc2c1NC(=O)CN1CCN(c2ccccn2)CC1 |  | inactive: 1.56%
Cc1ccc2nc(Nc3ccc(C)c(C)c3)c3nncn3c2c1 | active: 22.4 µM | 
COc1ccc(NC(=O)CCc2nc(-c3ccc(C)cc3)no2)cc1Cl | inconclusive [inhibitor, full curve, poor fit] | 
O=[N+]([O-])c1ccc(C2CCCC/C2=N/OCc2ccc(F)cc2)c([N+](=O)[O-])c1 (configuration not stated) | inconclusive [inhibitor, partial curve] | 
CC1=C(C(=O)OC2CCCCC2)C(c2ccc(N(C)C)cc2)NC(=O)N1 (configuration not stated) | inconclusive [inhibitor, single point] | 
CN(C)c1ccc(Nc2ncnc3ccc(Br)cc23)cc1 |  | inactive: -16.9%
CC(=O)c1c(C)[nH]c(C(=O)Nc2cccc(S(=O)(=O)N3CCCCC3)c2)c1C | active: 12.6 µM | 
CCOC(=O)CN(C(=O)Cn1nnc(-c2ccc(C)cc2)n1)C(CC)C(=O)NC1CCCC1 (configuration not stated) | inconclusive [inhibitor, partial curve] | 
CCCOc1ccc(C(=O)NNC(=S)NC(=O)c2cc(-c3ccc(Cl)cc3)nc3ccccc23)cc1 | active: 15.8 µM | 
O=C(CSc1nnc(-c2ccco2)o1)N1c2ccccc2CCc2ccccc21 | inconclusive [inhibitor, partial curve] | 
CC(/C=N/NC(=O)c1cc(-c2ccc(Cl)cc2)nc2ccccc12)=C\c1ccco1 | inconclusive [inhibitor, full curve, poor fit] | 
CC(=O)c1cc2c(cc1NC(=O)c1ccc(-n3nc(C)cc3C)cc1)OCO2 | inconclusive [inhibitor, partial curve] | 
COc1ccc(Sc2nc(-c3ccccn3)ncc2OC)cc1 | inconclusive [inhibitor, full curve] | 
